# Measurements: paper PMC12136788
# This is one part of the list.
# B1: 58873064_58873184_2849_3pUTR_ENSMUSG00000025092_ENSMUST00000066285|mouse|control|control (ssRNA)
# RNA: GGGAGUUCUACAGUCCGACGAUCCUAUCUACCCAUUUGGUCAUCCACUCAGGAGUCUCAGAAUGUAUACUCUCCAGAGAAGGGGGUACUGCUGUAAUUUGGGGUACCUCACUAACUCUUCAGUGUACAGGUUCCACCAAAGCACAACAGAGGAUUGAGCAUCA
# B2: 66274184_66274304_2207_3pUTR_ENSMUSG00000024098_ENSMUST00000024906|mouse|control|control (ssRNA)
# RNA: GGGAGUUCUACAGUCCGACGAUCUAAAAUUGAACCUGUGUAUUAUAGAUAUUUGUUUUUGAUUCAUGCUUGAAGGUGAGAAUUUUAUUACUAGGAAGGGCGUGUAGUAAUGAAGCUCAGCACUAUGGAAACGCUAGGUAAGAACAACAGAGGAUUGAGCAUCA
# B3: 31334811_31336003_1596_CDS_ENSMUSG00000021962_ENSMUST00000022535|mouse|control|control (ssRNA)
# RNA: GGGAGUUCUACAGUCCGACGAUCCCUGGGAACCGUUUGCUGGAACACACUGGGGGACAGCAGGACUGAAGAUACUGCUGUGGUGGUUGCAGGAACCAAUGGAGAGCCUGCAAUCGGGAUGGCACUGGGUAACACCUUAGGCUGCAACAGAGGAUUGAGCAUCA
# B4: 168344084_168344669_3204_CDS_ENSG00000130396_ENST00000400822|human|control|control (ssRNA)
# RNA: GGGAGUUCUACAGUCCGACGAUCUACUUCCAGUGUCACCACAGAGCUUGUUCUUGUCAUGAGUUCUGCCGCCCUUUCCUGAGAGAGUCCAACCAGACUUCGUCCAUCCACACUGAGGAGCUGAUCACCUGCAGCUAGACGUCCCAACAGAGGAUUGAGCAUCA
# B5: chr18:47008509:47008510:-_ENSG00000177576_ENST00000318240|hu_mus|motif|central (ssRNA)
# RNA: GGGAGUUCUACAGUCCGACGAUCGCUCACACGGACCUUCUAUUUGUUCAUAUCAGUAAAUUGGAAUAAUAGAAAUGAAAGCGGCUUUAAUGAAAAAGAAACUCAGGGGUGAGAUCAUUAAAUAUAACUACUGGAAUUUUAAAUCAACAGAGGAUUGAGCAUCA
# B6: chr14:39627603:39627604:-_ENSG00000182400_ENST00000330149|hu_mus|motif|central (ssRNA)
# RNA: GGGAGUUCUACAGUCCGACGAUCGAACUUCAUGAUGUCUAAUUCAUCCUUGAACCUUGCAGUAUCUUUCGUAAACCUUUCGGUCAGUCCUUGCCCCACUCGGAACCCCAUGCUCUCCAGCUUAGUAACACACCUUCCAUUUUCCAACAGAGGAUUGAGCAUCA
# Target: T1, UNK ZnF1-3 (human, UniProt Q9C0B0 31-174)
# T1 sequence: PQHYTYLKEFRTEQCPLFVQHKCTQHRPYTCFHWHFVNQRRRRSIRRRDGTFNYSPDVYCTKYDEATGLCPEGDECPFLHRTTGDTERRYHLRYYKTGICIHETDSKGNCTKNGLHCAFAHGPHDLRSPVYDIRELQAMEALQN
# Assay: nsRBNS (natural sequence RNA bind-n-seq); RBNS binding buffer (assumed for nsRBNS): 25 mM Tris pH 7.5, 150 mM KCl, 3 mM MgCl2, 0.01% Triton X-100, 500 ug/ml BSA, 20 U/ml SUPERase-In, 4 C; UNK is unkempt and MSI1 is Musashi-1; names of the RNAs are library labels; protein concentration not given here; high values mean tight binding
row,Binder,binding signal
1,B1,0.93 enrichment R
2,B2,2.06 enrichment R
3,B3,1.42 enrichment R
4,B4,1.31 enrichment R
5,B5,1.88 enrichment R
6,B6,0.809 enrichment R
